# In the supplement of paper PMC3334620:
# In all, about 33,000 sequences were measured (“E-score (-0.5 to 0.5)”: median about -0.035, highest 2% from about 0.34 on). Some of the results follow.
# Target: T1, Mot3 (UniProt P54785)
# T1 sequence: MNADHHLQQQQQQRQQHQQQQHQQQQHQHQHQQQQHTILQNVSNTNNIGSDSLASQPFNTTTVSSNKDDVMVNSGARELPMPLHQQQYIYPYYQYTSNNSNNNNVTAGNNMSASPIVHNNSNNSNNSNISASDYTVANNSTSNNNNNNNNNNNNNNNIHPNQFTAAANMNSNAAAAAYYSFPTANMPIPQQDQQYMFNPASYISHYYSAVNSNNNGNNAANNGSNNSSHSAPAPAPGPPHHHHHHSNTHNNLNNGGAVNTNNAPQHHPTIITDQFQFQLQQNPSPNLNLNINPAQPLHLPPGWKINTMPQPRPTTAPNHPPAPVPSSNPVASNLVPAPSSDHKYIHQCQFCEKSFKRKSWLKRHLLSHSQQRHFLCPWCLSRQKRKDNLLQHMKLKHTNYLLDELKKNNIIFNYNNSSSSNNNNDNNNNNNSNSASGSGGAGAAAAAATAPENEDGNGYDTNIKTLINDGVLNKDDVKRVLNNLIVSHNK
# Assay: PBM E-score (8-mer binding enrichment) (E-score (-0.5 to 0.5)); higher = stronger / more preferred TF binding; most listed sequences are background and not binding sites
# Conditions: protein concentration: 200 nM; construct: GST-full length
# In short: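 Full-length yeast transcription factors or their DNA-binding domains, GST-tagged and expressed with PURExpress, were applied at about 100-200 nM to universal all-10-mer Agilent arrays. These arrays had been made double-stranded by primer extension on fresh or once-stripped slides. Detection used fluorescent anti-GST, normalisation used masliner, and E-scores for ungapped eight-base words pooled with reverse complements came from the Universal PBM Analysis Suite.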
row,Sequence,PBM E-score
1,GCCCTACA,-0.0323
2,ACTTAGAC,0.103
3,ATAAAGAT,0.0679
4,AGCTTGTA,0.286
5,GGAGAGAC,-0.226
6,ATGGGAAC,-0.173
7,CCCTATCG,-0.125
8,ATTCCGAA,-0.0341
9,CACGGAAC,0.0699
10,CGTCCTTC,-0.126
11,TCTAGCAA,0.0164
12,CGTATAGA,-0.0185
13,AGAAAGGC,0.222
14,GCATCTAA,-0.0691
15,ACTTAGTC,-0.0941
16,CTATAAGC,0.09
17,CAGGTACG,0.409
18,CGCAATCA,0.108
19,AAGAAAAT,0.148
20,CATGCGGG,-0.167
21,AGGCGGGA,-0.137
22,CAAGCGTC,-0.0912
23,ATGGCTAC,0.00372
24,GACTACTA,0.103
25,GAGACATC,-0.261

row,Sequence,PBM E-score
1,GATAAGAC,-0.133
2,GTAACCAA,0.00785
3,ACTTTCAA,0.0926
4,GACGTAAA,0.248
5,GCCTGCGC,0.194
6,ACACCGGA,0.0203
7,GAAGGGCC,-0.151
8,GTCCAATA,-0.0665
9,GAGACGCA,-0.00287
10,GCTGCGTA,0.204
11,CAGGTGTA,0.15
12,GCGCGGAA,-0.231
13,CAGTGAAC,0.0148
14,CATTGCCA,0.0689
15,CCACTCCA,-0.215
16,CGAGATCA,-0.107
17,CTTCGGGA,-0.19
18,CCGCGTGA,0.00197
19,TCAAGCAA,-0.0561
20,AGCCGACG,-0.153
21,CCATTCTA,-0.0781
22,AGTACCTG,0.378
23,ACGCGGCT,0.117
24,AGCTACAT,0.145
25,CGAAAATC,0.0592

row,Sequence,PBM E-score
1,TATCGTCA,0.00747
2,ACTTCGTG,0.0558
3,GATCCGCA,-0.296
4,CCCGCATC,-0.225
5,CCAGGGTC,-0.296
6,AGGCTGTC,-0.15
7,TACGGCAA,0.0266
8,CCTGACAA,0.0407
9,CGAACGAC,-0.144
10,AAGCGATT,-0.0463
11,CCATAGTC,-0.141
12,ACAATGGT,-0.058
13,GAATGGTC,-0.201
14,CCCGTCCA,-0.115
15,AGACCTCG,-0.189
16,GATAAGTA,0.0457
17,ACCTGTAC,0.199
18,AACCCCAA,0.00599
19,ATTCCAGG,0.189
20,ACCCGACA,-0.0489
21,CCTATATA,0.119
22,CGATTGAC,0.147
23,ATACGGGA,-0.127
24,AGACTCCG,-0.222
25,CAAGCTAA,0.00884

row,Sequence,PBM E-score
1,ACGCCAGA,-0.0298
2,AGGGGAGG,-0.236
3,ATCCACAT,0.0728
4,AAACAGTG,0.15
5,CGCGGTGC,-0.134
6,AGCGTCCA,-0.172
7,AATATTTG,0.0798
8,CTTCCTGA,-0.0128
9,CAACTTCG,0.0654
10,CCCGGCCG,-0.319
11,GCGTCCTA,-0.0737
12,AATACTGG,-0.133
13,CCCAGCAC,-0.175
14,GGGTACCC,-0.304
15,CAAAGCCA,0.0685
16,CATACATC,0.079
17,CGGTTGAC,-0.0767
18,AGATTCTG,-0.111
19,CATATCAG,-0.13
20,GATTGCGA,-0.0815
21,CTGCTAGA,-0.159
22,CAGACCCA,-0.184
23,CGTAAAGA,0.239
24,GACTTACA,0.145
25,CACTAGTA,0.0592

row,Sequence,PBM E-score
1,GCGGTGCC,0.305
2,GATGCCTA,0.439
3,CCCGCTAA,-0.231
4,GAGGAAAC,-0.027
5,CAGTGGGG,-0.258
6,ACCAGGCC,-0.0646
7,TAAATCGA,0.0828
8,ATCGAGTC,-0.173
9,CTGCTGTC,-0.0996
10,AACAGATA,0.128
11,ACCTATAA,0.122
12,CCGAAGCA,0.0254
13,CAACATTG,0.245
14,AGCGCGGG,-0.00632
15,ATCCGACA,-0.165
16,CACCACAC,0.00987
17,CGTGACAG,-0.064
18,AGACGATG,-0.0146
19,GACTTTCC,0.0833
20,CATGTAGA,0.39
21,GCTGGATA,0.0442
22,ATCTGCAC,-0.214
23,AGTTTCGC,-0.252
24,ACCTTAAC,0.173
25,GGTGTATA,0.0111

row,Sequence,PBM E-score
1,GATGCCAC,-0.392
2,ACCAGCCC,-0.166
3,ATTAAGAG,-0.041
4,AACCGTCC,-0.278
5,GGCGAAAA,0.00026
6,AGCAGAGA,-0.22
7,ACGAAATG,0.0717
8,AATGCCGA,-0.249
9,CACCCGAA,-0.0326
10,GTCGTCGA,-0.124
11,AGCGCCGC,-0.148
12,CCGAGCAC,-0.0689
13,AGAAGGCA,0.475
14,GAAGTCCA,-0.216
15,GCATTTAA,0.175
16,CCATCGCG,-0.0312
17,AATCGAAT,-0.00625
18,GACTAGCA,-0.132
19,GCGGCAGC,-0.357
20,TAACTATA,0.0299
21,GCCCAGGA,-0.0653
22,CTATAATC,-0.0237
23,CTGCCGCA,-0.351
24,CTTTAGAA,0.143
25,ACGTAGGA,0.184

row,Sequence,PBM E-score
1,ACGCTGTA,0.0866
2,AAGGACAA,0.0955
3,AATTTGTG,-0.103
4,AAACTTCT,0.0624
5,GGCAAGCC,0.329
6,GCGTATTA,0.298
7,GTAGCGCA,-0.107
8,TAGCGCAA,0.0519
9,CTGGGACA,-0.0738
10,AACGCACT,0.112
11,CCGGCTAA,-0.14
12,CACATCAG,-0.0602
13,GGGTAGTA,-0.109
14,ATTAGTCG,-0.179
15,AGTACGCC,-0.155
16,ACGGTCTC,-0.263
17,CCTAACAC,0.255
18,ACTCCCTA,0.108
19,CGGCTTAG,-0.287
20,ACAACACG,0.336
21,CCATACGG,-0.0434
22,TTAGGCAA,0.481
